The source of these data is the supplement of paper PMC7826260.

This is one part of the list. Viral Rep nickase domains cut single-stranded DNA in vitro for 1 h at 37 °C with 3 µM enzyme; only the middle of the 90-letter strands is printed. Numbers give uncut DNA relative to the enzyme-free pool, as log2; the lower, the more was cut; hits are not called. Counts are relative to all reads, so uncut sequences can rise above 0 when many others are cut.

What all share (assay): uncleaved DNA left, log2 of reads against the no-enzyme library (log2 ratio); higher = less cleavage (more negative = more Rep cleavage of the k-mer); sequences stand for … in CTCGTCCG…ACCGGAGA
The subject of assay [1] is T1, Rep nickase domain of Muscovy duck circovirus.
T1 sequence (Rep 1-111, printed without the tag): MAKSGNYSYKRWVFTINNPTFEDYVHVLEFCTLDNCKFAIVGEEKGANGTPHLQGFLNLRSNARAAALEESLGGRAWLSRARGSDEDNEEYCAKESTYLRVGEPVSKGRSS
The method, then:
(§1)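 A pool of 90-nt single-stranded DNAs with seven random bases just before the constant AC of the nick site (name = the seven bases) was cut by 3 µM recombinant His6-SUMO-tagged Rep nickase domain (300 nM DNA, 50 mM HEPES pH 8.0, 50 mM NaCl, 1 mM MnCl2, 1 h, 37 °C, three replicates). Uncut DNA was amplified and sequenced.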

The test system of assay [2] is T2, Rep nickase domain of banana bunchy top virus.
T2 sequence (Rep 1-94, printed without the tag): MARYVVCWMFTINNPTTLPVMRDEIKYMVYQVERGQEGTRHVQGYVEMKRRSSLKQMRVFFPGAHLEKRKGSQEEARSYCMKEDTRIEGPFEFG
As to the method:
as §1

The subject of assay [3] is T3, Rep nickase domain of cabbage leaf curl virus.
T3 sequence (Rep 1-116, printed without the tag): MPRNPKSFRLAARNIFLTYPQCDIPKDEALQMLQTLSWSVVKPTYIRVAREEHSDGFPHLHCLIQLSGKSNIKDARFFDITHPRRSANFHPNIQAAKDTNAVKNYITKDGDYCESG
As to the method: as §1
Assay [4] has as its system T4, Rep nickase domain of chickpea chlorotic dwarf virus.
T4 sequence (Rep 1-124, printed without the tag): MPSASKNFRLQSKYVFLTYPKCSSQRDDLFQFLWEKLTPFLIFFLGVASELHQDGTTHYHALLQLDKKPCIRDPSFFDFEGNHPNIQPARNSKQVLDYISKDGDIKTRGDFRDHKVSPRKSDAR
As to the method: as §1
The subject of assay [5] is T5, Rep nickase domain of faba bean necrotic yellows virus.
T5 sequence (Rep 1-98, printed without the tag): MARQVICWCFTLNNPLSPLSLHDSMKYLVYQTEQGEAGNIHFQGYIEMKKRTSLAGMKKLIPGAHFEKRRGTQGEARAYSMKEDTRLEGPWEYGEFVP
The method, then:
as §1

In assay [6] the test system is T6, Rep nickase domain of maize striate mosaic virus.
T6 sequence (Rep 1-117, printed without the tag): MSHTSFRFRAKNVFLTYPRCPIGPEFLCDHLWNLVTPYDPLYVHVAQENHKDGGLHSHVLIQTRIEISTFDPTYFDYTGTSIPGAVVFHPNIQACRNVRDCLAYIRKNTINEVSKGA
The method, then: as §1
Assay [7] relates to T7, Rep nickase domain of porcine circovirus 2.
T7 sequence (Rep 2-116, printed without the tag): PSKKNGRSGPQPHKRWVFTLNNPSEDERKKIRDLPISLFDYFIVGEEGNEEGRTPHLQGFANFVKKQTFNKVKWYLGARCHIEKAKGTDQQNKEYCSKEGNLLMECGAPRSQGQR
As to the method: as §1
For assay [8], the system named is T8, Rep nickase domain of tomato golden mosaic virus.
T8 sequence (Rep 1-124, printed without the tag): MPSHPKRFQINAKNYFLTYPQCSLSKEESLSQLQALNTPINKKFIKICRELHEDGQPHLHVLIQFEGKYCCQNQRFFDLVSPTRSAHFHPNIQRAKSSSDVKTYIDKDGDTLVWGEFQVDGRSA
As to the method: as §1
The subject of assay [9] is T9, Rep nickase domain of tomato yellow leaf curl virus.
T9 sequence (Rep 1-136, printed without the tag): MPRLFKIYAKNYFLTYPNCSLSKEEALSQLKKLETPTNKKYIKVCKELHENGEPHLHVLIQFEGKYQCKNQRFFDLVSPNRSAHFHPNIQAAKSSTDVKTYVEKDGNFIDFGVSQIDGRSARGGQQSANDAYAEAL
The method, then: as §1
Assay [10] relates to T10, Rep nickase domain of wheat dwarf virus.
T10 sequence (Rep 1-137, printed without the tag): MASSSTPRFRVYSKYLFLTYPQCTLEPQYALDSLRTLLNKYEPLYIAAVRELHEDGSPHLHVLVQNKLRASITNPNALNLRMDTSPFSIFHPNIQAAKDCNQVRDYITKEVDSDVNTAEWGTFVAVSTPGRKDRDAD
The method, then: as §1

GAACAGC: the “uncleaved DNA left (log2)” value in assay [1] was -0.0396; in assay [2] it was 0.0859; in assay [3] it was 0.648; in assay [4], 1.51; in assay [5], 0.0704; in [6], 1.53. Also, the “uncleaved DNA left (log2)” value in [7] was 0.189; in [8], -0.041; in assay [9], -0.0432; in assay [10], 0.0831.

Take ATGGTTC: the “uncleaved DNA left (log2)” value in [1] is 0.131; in assay [2] it was -0.067; in assay [3], 0.116; in assay [4], -0.854; in [5], -0.151; in assay [6], 0.339. For the same sequence, the “uncleaved DNA left (log2)” value in [7] was 0.101; in assay [8] it was -0.122; in assay [9] it was -0.13; in assay [10] it was -0.0576.

Regarding TTGCCCC, the “uncleaved DNA left (log2)” value in [1] is -1.09; in assay [2] it was -0.489; in assay [3] it was -0.165; in assay [4] it was -0.514; in [5], -0.0183; in assay [6] it was -0.688. Also, the “uncleaved DNA left (log2)” value in assay [7] was -2.24; in assay [8] it was -0.116; in assay [9] it was 0.0537; in [10], 0.0675.

On to TCCAACT, for which the “uncleaved DNA left (log2)” value in assay [1] is -0.143; in assay [2], -0.0777; in [3], -0.134; in assay [4], -2.68; in assay [5], -0.0243; in assay [6] it was -0.39. Moreover, the “uncleaved DNA left (log2)” value in assay [7] was -0.32; in assay [8], -0.0482; in assay [9], -0.269; in assay [10], -0.122.

Turning to ATTGTGG, the “uncleaved DNA left (log2)” value is 0.0752 in assay [1]; 0.0251 in assay [2]; -0.467 in assay [3]; -0.556 in [4]; 0.0699 in assay [5]; -1.02 in [6]. Also, the “uncleaved DNA left (log2)” value is 0.152 in assay [7], 0.0283 in assay [8], 0.101 in assay [9] and -0.00266 in [10].

For CGACCCA, the “uncleaved DNA left (log2)” value amounted to 0.045 in [1]; 0.167 in assay [2]; 0.225 in assay [3]; 0.319 in assay [4]; 0.102 in assay [5]; 0.693 in assay [6]. Further, the “uncleaved DNA left (log2)” value in [7] was -0.074; in [8], 0.108; in assay [9], 0.0782; in assay [10] it was 0.104.

For the sequence AGAGTTC, the “uncleaved DNA left (log2)” value in assay [1] was 0.0193; in assay [2] it was -0.112; in assay [3], 0.154; in [4] it was -0.706; in assay [5] it was -0.0635; in assay [6], -0.0748. In addition, the “uncleaved DNA left (log2)” value in [7] is -0.77; in [8], 0.0176; in [9] it was 0.036; in [10], -0.0177.

Consider TCTTTTA, for which the “uncleaved DNA left (log2)” value in [1] was -0.0576; in assay [2] it was -0.00788; in [3], 0.109; in assay [4] it was -1.38; in [5], 0.0242; in [6] it was -0.243. The “uncleaved DNA left (log2)” value in [7] was -0.434; in [8], 0.0551; in [9] it was 0.018; in [10], -0.0387.

Regarding GACTGAC, the “uncleaved DNA left (log2)” value was -0.0138 in assay [1]; 0.0126 in assay [2]; -0.106 in assay [3]; 0.584 in assay [4]; -0.152 in assay [5]; 0.445 in assay [6]. The “uncleaved DNA left (log2)” value in [7] was 0.15; in assay [8], 0.0676; in assay [9], -0.0324; in assay [10] it was 0.0796.

As to AGAACGC, the “uncleaved DNA left (log2)” value was 0.055 in assay [1]; 0.125 in assay [2]; -0.0821 in [3]; -0.0499 in assay [4]; 0.00766 in [5]; -0.637 in assay [6]. Also, the “uncleaved DNA left (log2)” value in assay [7] is 0.178; in assay [8], 0.0519; in [9], -0.00867; in assay [10] it was 0.0288.

For the sequence AACCTGG, the “uncleaved DNA left (log2)” value was 0.137 in assay [1]; 0.117 in assay [2]; 0.0897 in [3]; 0.0431 in [4]; 0.132 in [5]; -0.612 in [6]. Also, the “uncleaved DNA left (log2)” value was 0.0521 in assay [7], 0.0923 in assay [8], 0.0302 in assay [9] and 0.0855 in [10].

In the case of TGTGAGG, the “uncleaved DNA left (log2)” value was 0.153 in [1]; -0.0536 in assay [2]; 0.403 in assay [3]; 1.02 in assay [4]; 0.021 in [5]; 1.17 in assay [6]. Also, the “uncleaved DNA left (log2)” value in assay [7] was -0.0237; in assay [8] it was 0.0771; in assay [9] it was -0.0886; in assay [10], -0.0899.

In the case of CCGACCA, the “uncleaved DNA left (log2)” value is -0.0368 in [1]; 0.0701 in assay [2]; 0.039 in assay [3]; -0.333 in assay [4]; -0.0682 in [5]; -0.266 in assay [6]. In addition, the “uncleaved DNA left (log2)” value was -0.197 in assay [7], -0.0307 in [8], -0.0678 in assay [9] and -0.0528 in assay [10].

In the case of AGAAGGC, the “uncleaved DNA left (log2)” value is 0.0132 in [1]; 0.0772 in [2]; -0.0108 in [3]; 0.13 in assay [4]; 0.0865 in assay [5]; -0.717 in assay [6]. For the same sequence, the “uncleaved DNA left (log2)” value in assay [7] is 0.075; in [8], 0.0279; in [9], 0.0313; in assay [10], -0.0113.

As for GGATGTC, the “uncleaved DNA left (log2)” value in assay [1] was 0.0677; in assay [2], 0.224; in assay [3], 0.706; in assay [4], 1.41; in assay [5] it was 0.127; in [6] it was 1.94. Further, the “uncleaved DNA left (log2)” value in [7] came to 0.188; in assay [8], 0.0796; in assay [9], 0.071; in assay [10] it was 0.153.
